The whole screen tested about 310,000 compounds, of which about 2,200 (0.71%) showed an effect of 50% or more. The effect is printed as a negative number. This is one part of the list.
What follows are compounds tested against human ether-à-go-go-related gene (hERG) potassium channel (human, UniProt Q12809) (assay: primary screen, population patch clamp on CHO cells stably expressing hERG).
human ether-à-go-go-related gene (hERG) potassium channel, sequence (Q12809 whole entry, looked up): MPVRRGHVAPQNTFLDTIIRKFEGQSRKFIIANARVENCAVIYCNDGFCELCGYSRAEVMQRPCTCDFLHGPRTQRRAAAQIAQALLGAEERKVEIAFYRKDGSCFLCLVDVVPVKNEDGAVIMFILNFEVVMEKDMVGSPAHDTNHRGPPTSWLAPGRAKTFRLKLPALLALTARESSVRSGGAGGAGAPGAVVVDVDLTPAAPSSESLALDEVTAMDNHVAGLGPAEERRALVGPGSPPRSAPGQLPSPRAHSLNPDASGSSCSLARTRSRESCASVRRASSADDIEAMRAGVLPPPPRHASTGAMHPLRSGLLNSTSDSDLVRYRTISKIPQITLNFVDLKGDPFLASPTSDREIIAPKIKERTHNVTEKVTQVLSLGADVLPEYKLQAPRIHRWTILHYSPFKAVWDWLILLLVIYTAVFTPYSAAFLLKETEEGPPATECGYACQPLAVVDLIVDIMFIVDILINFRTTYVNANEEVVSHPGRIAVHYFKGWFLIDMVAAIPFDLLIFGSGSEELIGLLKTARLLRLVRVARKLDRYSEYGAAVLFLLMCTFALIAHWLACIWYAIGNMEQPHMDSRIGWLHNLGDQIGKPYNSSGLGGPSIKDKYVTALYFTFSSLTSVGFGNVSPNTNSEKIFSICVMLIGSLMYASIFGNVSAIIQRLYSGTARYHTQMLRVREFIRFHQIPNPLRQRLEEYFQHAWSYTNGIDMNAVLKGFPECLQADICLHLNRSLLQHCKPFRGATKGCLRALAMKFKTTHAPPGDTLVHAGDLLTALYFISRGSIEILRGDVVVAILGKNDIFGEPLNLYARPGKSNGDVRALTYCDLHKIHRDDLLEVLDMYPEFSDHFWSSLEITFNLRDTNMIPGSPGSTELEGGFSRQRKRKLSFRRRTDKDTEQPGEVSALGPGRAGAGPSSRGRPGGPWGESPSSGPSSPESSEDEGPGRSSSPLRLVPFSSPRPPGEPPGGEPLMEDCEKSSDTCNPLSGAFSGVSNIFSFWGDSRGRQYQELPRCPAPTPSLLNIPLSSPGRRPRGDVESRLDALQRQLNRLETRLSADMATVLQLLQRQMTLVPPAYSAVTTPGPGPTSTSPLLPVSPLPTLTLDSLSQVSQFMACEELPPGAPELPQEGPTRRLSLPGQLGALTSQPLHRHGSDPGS

Row | SMILES | hERG current change (%, negative = inhibition) at 1uM [%]
1 | CN(CCO)c1ccc([N+](=O)[O-])cc1C(=O)O | -5.43
2 | Cc1ccc(C(=O)N2CCN(c3ccc(NC(=O)c4cc(C)cc(C)c4)cc3)CC2)cc1 | 7.12
3 | Cc1ccc(CS(=O)(=O)Cc2ccc(C(=O)NCCc3ccccc3)o2)cc1 | 9.82
4 | COc1nccnc1NS(=O)(=O)c1ccc(NC(=S)NC(=O)c2ccc(F)c(F)c2)cc1 | 2.42
5 | COc1ccc(CCNC(=O)C2CCN(S(=O)(=O)c3ccc4nc5c(c(C(=O)O)c4c3)CCCC5)CC2)cc1OC | 11.5
6 | Cc1cccc(Nc2nnc(SCC(=O)Nc3ncc(C(F)(F)F)cc3Cl)s2)c1C | 3.17
7 | C=CCc1cc2c(oc(=O)c3ccccc32)c(C)c1O | 7.3
8 | CCC(C)NC(=O)CNC(=S)N(Cc1ccccc1)Cc1cccnc1 (centres unmarked) | -5.2
9 | NC(=O)c1ccsc1NC(=O)Cc1ccc([N+](=O)[O-])cc1 | -0.898
10 | CCOc1cc(/C=C2\SC(=Nc3ccc(F)cc3)N(c3ccc(F)cc3)C2=O)ccc1OCC(=O)O | -5.11
11 | O=C(Nc1ccc(Oc2cccnc2)cc1)c1ccc([N+](=O)[O-])cc1 | -2.91
12 | O=C(CSc1ccc(-c2ccccn2)nn1)N1CCCC1 | 7.16
13 | CN(C(=O)COC(=O)c1ccccc1NCc1ccco1)c1c(N)n(Cc2ccccc2)c(=O)[nH]c1=O | 7.67
14 | CC1CCC/C(=N\Nc2ccc(Cl)c(C(=O)O)c2)C1 (centres unmarked) | 6.37
15 | CCN1C(=O)c2cccc3cccc1c23 | 8.91
16 | Cc1ccc(-n2ncc(C(=O)N3CCN(C(=O)c4ccco4)CC3)c2C2CCN(C(=O)OC(C)(C)C)CC2)cc1C | 11.2
17 | CCOCCCNC(=O)C(NC(=O)CNC(=O)c1ccccc1)c1ccc(C)cc1 (centres unmarked) | 6.64
18 | O=C(NC1CCCCC1)C(c1ccncc1)N(C(=O)c1csnn1)c1cccc(F)c1 (centres unmarked) | -11.4
19 | Cn1c(-c2ccccc2[N+](=O)[O-])[n+](C)c2ccccc21.[Cl-] | 12.9
20 | COCCCN=C1NN=C(c2cc(C)n(Cc3ccco3)c2C)CS1.Cl | -10.2
21 | CCCn1c(=N)c(S(=O)(=O)c2ccccc2)cc2c(=O)n3cccc(C)c3nc21 | 8.87
22 | FC(F)(F)c1cccc(NC(=S)NCC(c2cccnc2)N2CCOCC2)c1 (centres unmarked) | 9.47

Row | SMILES | hERG current change (%, negative = inhibition) at 1uM [%]
23 | CCOc1ccc(NC(=O)c2cc(OC)nc3ccccc23)cc1 | 15.6
24 | CCOC(=O)CC(NC(=O)c1ccc(C)cc1)c1ccc(C)cc1 (centres unmarked) | 7.81
25 | O=C(O)CCCSCC(=O)Nc1ccccc1 | 11.8
26 | Cc1ccccc1Nc1nc(N)nc(COC(=O)c2cccc(S(=O)(=O)N(C)C)c2)n1 | 8.43
27 | CC(=O)/C(=N/Nc1cccc(Cl)c1)Sc1nnc(C(O)c2ccccc2)n1-c1ccccc1 (centres unmarked) | 9.37
28 | COc1cccc(Cc2n[nH]c(=S)n2Cc2ccco2)c1 | 12.1
29 | COCCCNC(=O)/C=C1\Sc2ccccc2N(Cc2ccccc2F)C1=O | 11.8
30 | Cc1c(NC(=O)CSc2nnc(Nc3ccccc3)s2)c(=O)n(-c2ccccc2)n1C | -26
31 | O=C(NN1C(=O)/C(=C\c2cccnc2)SC1=S)C(c1ccccc1)c1ccccc1 | -0.137
32 | O=C(NCCCN1CCCC1)Nc1ccccc1[N+](=O)[O-] | 14.8
33 | CC(C)(C)n1ncc2c(=O)n(CC(=O)NC3CCCCC3)cnc21 | 10.3
34 | CC(C)NC(=O)C(=O)NCc1ccccn1 | 9.57
35 | COc1ccccc1C1N(c2cc(Cl)ccc2OC)C(=O)C2CCCN21 (centres unmarked) | 7.88
36 | COc1cc(-c2noc(-c3ccccc3C(=O)NCc3ccco3)n2)cc(OC)c1OC | 11.7
37 | C/C(=N/NC(=O)c1nnn(-c2nonc2N)c1-c1ccccc1)c1ccncc1 | 14.6
38 | CCOc1ncccc1C(=O)OCc1ccc([N+](=O)[O-])cc1 | -8.48
39 | Cc1ccc(C)n1-c1ccsc1C(=O)CC#N | 7.66
40 | Cc1ccc2nc(N3CCN(Cc4ccc(F)cc4)C3=O)c(C)cc2c1 | 3.51
41 | COc1ccccc1NC(=O)CSc1nnnn1C1CCCCC1 | -1.21
42 | Cc1cccc(NCN2C(=O)c3ccncc3C2=O)n1 | 12.7
43 | O=C(NCCc1c[nH]c2ccccc12)C1CCN(S(=O)(=O)c2ccc(F)cc2)CC1 | 2.23
44 | C#CCOCCOCCOCCNc1nc(N2CCN(C(=O)[C@H]([C@@H](C)O)n3cc(CCCC[NH3+])nn3)CC2)nc(N2CCN(C(=O)[C@H](Cc3ccc(O)cc3)n3cc(CCO)nn3)CC2)n1.[Cl-] | 6.21

Row | SMILES | hERG current change (%, negative = inhibition) at 1uM [%]
45 | CC(=O)n1c2c(c3ccccc31)OC(N)=C(C#N)C2c1cccc(Cl)c1Cl.CCO (centres unmarked) | 13.3
46 | COc1ccc(C2NC(C(=O)O)Cc3c2[nH]c2ccccc32)cc1OC (centres unmarked) | 15.6
47 | COc1ccc(/C=N/Nc2cc(N3CCOCC3)nc(C)n2)c(OC)c1 | 3.54
48 | O=C(NCc1ccc(F)cc1F)c1cc(COc2c(F)cccc2F)on1 | 1.42
49 | CCOC(=O)C1CN(S(=O)(=O)c2ccc(OC)cc2)c2cc(CC(=O)OC)ccc2O1 (centres unmarked) | 4.4
50 | CCOC(=O)C(/C(C)=N/NC(=O)C1CC1c1ccccc1)C(C)C (centres unmarked) | 2.75
51 | CCOc1cc(/C=C2/N=C(c3ccc(C(C)(C)C)cc3)OC2=O)cc(Cl)c1OS(C)(=O)=O | 4.17
52 | Nn1cnc2cc3ccccc3cc2c1=O | 17.6
53 | COc1ccccc1C(=O)NC(=O)COC(=O)c1ccc(C)o1 | 6.76
54 | O=C(Nc1ccc(F)cc1)Oc1ccc[nH]c1=O | 8.25
55 | Cc1nc2ccccc2c(=O)n1NC(=O)c1cc(Br)ccc1Cl | 2.82
56 | COc1ccccc1NC(=O)NNC(=O)c1cc2ccccc2cc1O | 5.86
57 | O=C(Cc1c(C(=O)O)[nH]c2ccccc12)Nc1ccc2c(c1)OCO2 | 8.25
58 | Cn1c(=NC(=O)COc2ccccc2)sc2cccc(F)c21 | 4.19
59 | CCCCCSc1nnc2c(n1)OC(C)N(C(C)=O)c1ccccc1-2 (centres unmarked) | 2.01
60 | CCOC(=O)c1ccc(NC(=O)c2ccccc2C)cc1 | 2.66
61 | CC1CN(C(=O)Nc2ccc3c(c2)OCO3)CC(C)O1 (centres unmarked) | 5.9
62 | CCN(CC)S(=O)(=O)c1ccc2[nH]c(=O)[nH]c2c1 | -18.2
63 | CCOc1ccc(NC(=O)C2=C(C)C(=O)OC23CCC(C)CC3)cc1 (centres unmarked) | 9.2
64 | CS(=O)(=O)N1CCCC(C(=O)N2CCOCC2)C1 (centres unmarked) | 11.8
65 | Cc1ccc(C)c(NC(=O)CN(C)S(=O)(=O)c2cccc3cccnc23)c1 | 2.6
66 | O=C(CSc1nnc(-c2ccc(O)cc2)o1)Nc1ccccc1Br | 18.5

Row | SMILES | hERG current change (%, negative = inhibition) at 1uM [%]
67 | CCOc1ccc(NC(=O)C2CCCN(S(C)(=O)=O)C2)cc1 (centres unmarked) | 13.5
68 | N#CC1=C2C=CC=CN2CC1=O | 0.331
69 | O=C(NCc1cccnc1)Nc1ccccc1F | 7.6
70 | Cc1cc2c(cc(C(=O)OC(C(=O)NCC3CCCO3)C(C)C)n2C)o1 (centres unmarked) | 4.94
71 | COc1ccc(-c2cc(=O)oc3cc(OCC(C)=O)ccc23)cc1 | 10.4
72 | CC1CN(c2ccc(C(F)(F)F)cc2[N+](=O)[O-])CCN1S(C)(=O)=O (centres unmarked) | -29.5
73 | COc1ccc(C(=O)C2CCCN(Cc3c(C)[nH]c4ccccc34)C2)c(OC)c1 (centres unmarked) | -28.6
74 | O=C(COC(=O)CSc1ccc([N+](=O)[O-])cc1)NC1CCCCCCC1 | 11.5
75 | Cc1cc(C)cc(-n2c(N)c(C(=O)Nc3c(C)n(C)n(-c4ccccc4)c3=O)c3nc4ccccc4nc32)c1 | -4.66
76 | CS(=O)(=O)N(CC(=O)NCc1ccccc1)Cc1ccc(Cl)cc1 | -16.4
77 | CCN1CCN(c2ccc(Nc3ccnc4ccccc34)cc2)CC1 | 11.9
78 | O=C(NCCN1CCOCC1)c1ccc(CSCc2cccc(Cl)c2)o1 | -23
79 | COc1ccc(-c2nc(C3CCCCC3)no2)cc1OC | 9.93
80 | COc1ccccc1P(=O)(Cc1ccccc1)c1ccccc1 (centres unmarked) | 9.31
81 | O=C(O)CCC(=O)Nc1cccc(C(=O)c2ccccc2)c1 | 11.8
82 | O=C(Nc1c2c(nn1-c1ccc([N+](=O)[O-])cc1)CS(=O)(=O)C2)C1CC1 | 9.67
83 | O=C(Nc1nc(-c2ccccn2)cs1)c1cc(S(=O)(=O)N2CCOCC2)ccc1F | 5.89
84 | c1ccc(-c2nc(NCc3cccs3)c3ccccc3n2)cc1 | 11
85 | Nc1c(-c2ccccc2)nc(Cl)nc1-c1ccccc1 | 13.2
86 | COc1cc(C(C2C(=O)CC(C)(C)CC2=O)C2C(=O)CC(C)(C)CC2=O)ccc1OC(C)=O | 11.4

Source: publication PMC4336329 (PLoS ONE, 2015)
